# From PubChem BioAssay AID488969 (Vanderbilt High Throughput Screening Facility, 2010)
# Whole data set: some 110,000 compounds, median “z-score” near -0.1, cut for the highest 2% near 2. The list shows a part of the results.
# Target: Metabotropic glutamate receptor 8 (Rattus norvegicus) (UniProt P70579)
# Experiment: mGluR8 Gi/Go-coupled signaling modulation – cell-based, rat, thallium flux, HTS, primary screen (AID 488969)
# Conditions: HEK293 rat mGluR8, GIRK (G protein-gated inwardly rectifying potassium channel) thallium flux, FluoZin2; at 10 µM; stronger effect = higher value; submaximal glutamate (EC20) added with thallium
# Sequence of UniProt P70579 (P70579 whole entry, looked up): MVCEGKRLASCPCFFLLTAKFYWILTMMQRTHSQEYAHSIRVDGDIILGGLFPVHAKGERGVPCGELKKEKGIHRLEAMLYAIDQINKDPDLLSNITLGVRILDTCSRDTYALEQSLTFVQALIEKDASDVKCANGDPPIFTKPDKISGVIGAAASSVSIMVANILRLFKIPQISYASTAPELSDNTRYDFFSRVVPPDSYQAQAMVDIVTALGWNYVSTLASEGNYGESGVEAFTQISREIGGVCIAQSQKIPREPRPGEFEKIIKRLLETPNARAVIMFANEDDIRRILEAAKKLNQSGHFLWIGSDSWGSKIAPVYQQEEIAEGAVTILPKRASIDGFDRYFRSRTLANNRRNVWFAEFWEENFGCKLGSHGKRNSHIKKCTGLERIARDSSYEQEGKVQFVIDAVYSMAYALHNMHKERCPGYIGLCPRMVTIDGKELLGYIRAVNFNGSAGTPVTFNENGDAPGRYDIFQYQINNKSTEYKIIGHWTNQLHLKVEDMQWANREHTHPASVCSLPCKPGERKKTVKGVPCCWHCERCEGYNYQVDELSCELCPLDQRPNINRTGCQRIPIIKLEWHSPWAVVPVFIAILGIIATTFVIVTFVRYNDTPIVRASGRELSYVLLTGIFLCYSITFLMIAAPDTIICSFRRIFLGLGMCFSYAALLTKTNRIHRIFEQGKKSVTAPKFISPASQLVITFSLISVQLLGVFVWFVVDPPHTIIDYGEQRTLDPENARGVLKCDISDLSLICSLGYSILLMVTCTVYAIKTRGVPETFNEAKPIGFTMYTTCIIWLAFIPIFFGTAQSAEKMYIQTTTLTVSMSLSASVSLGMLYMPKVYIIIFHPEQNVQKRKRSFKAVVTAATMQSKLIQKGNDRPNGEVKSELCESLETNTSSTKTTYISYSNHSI
row,SMILES,z-score
1,Cc1cc(C(=O)N2CCC(C(F)(F)F)n3nccc32)on1 (stereo not drawn),-0.55
2,O=c1c2c3c(sc2nc2n1CCC2)CCC3,-0.141
3,CC(C)(C)NC(=O)c1ccc(Sc2ccccc2)c([N+](=O)[O-])c1,-1.23
4,CCS(=O)(=O)N1CCC(NC(=O)c2cc(OC)cc(OC)c2)CC1,0.357
5,Cc1nn(C(=O)c2c([N+](=O)[O-])cnn2C)c(C)c1Cl,-0.0558
6,COc1ccc(-n2c(SCC(=O)Nc3nccs3)nc3sc4c(c3c2=O)CCN(C)C4)cc1,0.252
7,CCOc1ccccc1N1CCN(C(=O)C2c3ccccc3Oc3ccccc32)CC1,0.121
8,CCOC(=O)C1(CC)NC(c2ccco2)C2C(=O)N(c3ccc(C)cc3)C(=O)C21 (stereo not drawn),-0.0576
9,Cc1nnc(SCC(=O)NCc2ccco2)n1-c1ccccc1,-0.0052
10,CCOC(=O)/C(C(C)=O)=C1/OC(=O)c2ccccc21,-0.285
11,CCN(C1CCCCC1)S(=O)(=O)c1ccc(S(=O)(=O)N(CC(=O)Nc2ccccc2)C2CC2)cc1,0.199
12,CC(=O)NC(=S)Nc1ccc(-c2nc3ccc(C)cc3s2)cc1,0.23
13,O=C(N/N=C/c1ccc(OC2CSC2)cc1)c1ccccc1,-0.257
14,COc1cc(C2Nc3ccc4ncccc4c3C3=C2C(=O)CCC3)cc(OC)c1O (stereo not drawn),-0.047
15,O=C(NCC(c1ccco1)N1CCN(c2ccc(F)cc2)CC1)OCc1ccccc1 (stereo not drawn),-0.507
16,COc1ccc(N2CCN(C(=O)CSc3nnc(CNc4ccccc4)o3)CC2)cc1,0.686
17,CCOC(=O)COc1ccc(CCNC(C)=O)cc1,0.0219
18,CCOc1ccccc1NC(=O)CSc1nnc(CNC(=O)c2ccco2)o1,-0.119
19,CCOC(=O)c1cc(-c2ccc(/C=C3/C(=O)NC(=O)C(C#N)=C3C)o2)ccc1Cl,-0.148
20,COc1ccc(Cn2c(-c3ccccc3)nc3c(c(=O)c4ccccc4n3C)c2=O)cc1,-0.279
21,O=C(Nc1ccc2c(c1)OCO2)c1ccc(COc2ccc3c(c2)CCC3)o1,-0.205
22,Nc1c(C(=O)N2CCOCC2)sc(=S)n1-c1ccccc1,0.598

row,SMILES,z-score
1,Cc1ccc(NC(=O)CCC(=O)OCc2ccc(Br)cc2)cc1,-0.235
2,O=C(N/C(=C/c1cccnc1)C(=O)N1CCOCC1)c1ccco1,0.0222
3,O=C(CCSc1ccccc1)NCCSCc1ccccc1,-0.108
4,CCOC(=O)c1cc(NC(=O)c2ccc(Cl)cc2)c(=O)n2c1oc1ccc(Cl)cc12,-1.56
5,COC(=O)c1cc(Br)ccc1NC(=O)Nc1ccccc1,-0.137
6,Cc1cccnc1NC(=O)Nc1cccc2ccccc12,-0.148
7,CC1(C)Oc2ccc(NC(=O)c3ccco3)cc2O1,0.0161
8,CN(C)C=Nc1ncc2c3ccccc3n(CCN(C)C)c2c1C#N,-0.357
9,COc1ccccc1CC(=O)Nc1ccc(-c2noc(COc3ccc(Br)cc3)n2)cc1,0.394
10,Cc1ccc(/C=C/c2nc3ccccc3s2)s1,0.108
11,Cc1ccc2nc(Cl)c(/C=N/Nc3nc(C)cc(C)n3)c(=O)n2c1,-0.589
12,O=C(CSc1nnc(SCc2cccc3ccccc23)s1)N=Nc1c(O)[nH]c2ccccc12,-0.196
13,O=C(C1CC1)N(CCN(Cc1ccccc1)C(=O)C1CC1)Cc1ccccc1,-0.357
14,FC(F)(F)c1nnc2sc(-c3cccs3)nn12,-0.116
15,CC(=O)Nc1ccc(OCC(O)Cn2c3ccccc3c3ccccc32)c(C)c1 (stereo not drawn),-0.121
16,COc1cccc(C(=O)Nc2nc3c(s2)CN(C)CC3)c1,-0.0134
17,CSc1nc2c(cc1C#N)CCCCC2,-0.138
18,CCN(CC)S(=O)(=O)c1ccc(S(=O)(=O)N(Cc2ccccn2)Cc2ccco2)cc1,-0.932
19,O=S(=O)(c1ccc(F)cc1)n1ccc(-c2cccc(OCc3ccc(Cl)cc3Cl)c2)n1,-0.222
20,CSc1nncc(-c2ccc(F)c(F)c2)n1,-0.588
21,COc1cc(OC)c(-n2cc(-c3ccc(Cl)cc3)[nH]c2=O)cc1Cl,-0.109
22,COC(=O)c1ccc(CSc2ncnc3c2nnn3-c2ccc(F)cc2)o1,-0.0233

row,SMILES,z-score
1,CCN(c1ccccc1)S(=O)(=O)c1ccc(Cl)c(NC(=O)CSc2nncs2)c1,-0.244
2,O=C(On1c(-c2ccccc2)nc2ccccc2c1=O)c1ccco1,-2.42
3,CCN(CC(=O)NC1CCS(=O)(=O)C1)S(=O)(=O)c1ccccc1 (stereo not drawn),-0.3
4,Cc1ccc(Cl)cc1NC1=C/C(=N\S(=O)(=O)c2cccs2)c2ccccc2C1=O,-0.209
5,CNC(=S)N1CCN(c2ccc([N+](=O)[O-])cc2)CC1,-0.188
6,Cc1ccc(N2C(=O)CC(Nc3ccccc3)C2=O)cc1 (stereo not drawn),0.323
7,O=c1[nH]c2cc3c(cc2cc1C(c1nnnn1Cc1ccccc1)N1CCCc2ccccc21)OCO3 (stereo not drawn),-0.346
8,CCOC(=O)C1=C(CP(=O)(c2ccccc2)c2ccccc2)NC(=O)NC1c1ccc(Cl)cc1 (stereo not drawn),-0.311
9,CCN(CC)C(=O)C1=C(C)NC(=O)NC1c1c(F)cccc1Cl (stereo not drawn),-0.438
10,Cc1cc(C(=O)NCCCN2CCOCC2)n(-c2ccccc2)n1,0.0519
11,COC(=O)c1ccc(COn2c(=O)c(C)[n+]([O-])c3ccccc32)cc1,-0.22
12,O=C(CNc1cccc2ccccc12)N/N=C/c1ccc(C(=O)O)cc1,0.00827
13,Cn1c(SCc2nc3ccccc3[nH]2)nnc1-c1cccs1,-0.22
14,Cc1nnc(SCC(=O)NCc2ccco2)[nH]c1=O,0.822
15,COc1ccc(Cl)cc1S(=O)(=O)N1CCN(C(=O)COc2ccccc2)CC1,-0.595
16,COc1ccc(/C=N/OCC(=O)N(Cc2ccccc2)c2ccccc2C(=O)O)cc1,-0.0974
17,CN1C(=C2C(=O)OC(C)(C)OC2=O)Sc2ccccc21,-0.239
18,Cc1ccc(NC(=O)CN2c3cccc4cccc(c34)S2(=O)=O)cc1S(=O)(=O)N1CCOCC1,1.9
19,COc1ccccc1-c1cc(C(=O)Nc2cc(C)n(Cc3ccc(Cl)cc3)n2)no1,1.42
20,CCc1ccccc1N(CC(=O)Nc1cccc(N(C)S(C)(=O)=O)c1)S(C)(=O)=O,-0.767
21,Clc1ccc(C2=CSC3=Nc4cccc5cccc(c45)N23)cc1,0.287
22,Clc1ccc(-c2nnc(COc3ncnc4sccc34)o2)cc1,-0.17

row,SMILES,z-score
1,O=C(c1cccc(F)c1)N1CCN(Cc2ccco2)CC1,1.75
2,COCc1cc(C)nc(NCCO)c1C#N,-0.354
3,CCCSCCCNC(=O)Cn1cc2c(n1)CCC(C)C2 (stereo not drawn),0.0614
4,O=C(Nc1nc(-c2ccccn2)cs1)C1CC1,0.0299
5,O=C(C1CCCN(Cc2ccccc2Br)C1)N1CCCCC1 (stereo not drawn),0.643
6,Cc1cccc(C(=O)OCc2cnc(Cl)s2)c1,-0.141
7,O=C(CCn1c(=O)c2sccc2n(CC(=O)OCc2ccccc2)c1=O)NCc1ccco1,-0.601
8,O=C(CN(C1CCCCC1)S(=O)(=O)c1ccc(Cl)cc1)NCc1cccnc1,-0.67
9,CCc1cccc(CC)c1N(COC)C(=O)Cn1c(CO)nc2ccccc21,0.35
10,Cc1c(Cl)cccc1NC(=O)CSc1nnc(CCNC(=O)OC(C)(C)C)o1,0.264
11,CC(C)=CC[N+]1(C)CCCCC1,1.14
12,Cc1ccc(NS(=O)(=O)c2cc(C(=O)NCCSC3CCCCC3)ccc2C)cc1,0.0246
13,COc1ccc(Oc2nc3c(c(=O)n(C)c(=O)n3C)n2Cc2ccccc2)cc1,-1
14,COc1ccc(-c2cc(C(F)F)n3ncc(C(=O)NCC4CCCO4)c3n2)cc1 (stereo not drawn),0.609
15,c1ccc(-c2cn3nc(-c4ccccc4)cnc3n2)cc1,0.0427
16,Cc1ccc(Oc2nc(C(F)(F)F)nc3ccccc23)cc1,-0.0484
17,CCOC(=O)C1(C)C=C(Nc2ccc(OCC)cc2)C(=O)N1c1ccccc1 (stereo not drawn),-0.0669
18,Cc1n[nH]c(C)c1C(=O)CC1(O)C(=O)N(CCc2ccccc2)c2ccc(Br)cc21 (stereo not drawn),-0.295
19,O=C(Nc1ccc(N2C(=O)c3cccc4cccc(c34)C2=O)cc1)c1ccc(N2CCCCC2)c([N+](=O)[O-])c1,-0.0599
20,Cc1cc(O)cc(=O)n1Cc1ccco1,-0.277
21,O=C(CCCCCn1c(=O)[nH]c2ccccc2c1=O)NCCc1c[nH]c2ccccc12,-0.126
22,Cc1ccc(C)c(S(=O)(=O)NCC(=O)Nc2sc3c(c2C(N)=O)CCC(C)C3)c1 (stereo not drawn),-0.403

row,SMILES,z-score
1,CCc1c(C)nc2c(Br)cccc2c1SCCC#N,-0.993
2,CC(=O)Nc1ccc(NC(=O)CC2Nc3cccc4cccc(c34)NC2=O)cc1 (stereo not drawn),0.459
3,CN(C)CCCNC(=O)CC(c1ccccc1)c1ccccc1O (stereo not drawn),0.34
4,O=[N+]([O-])/C=C/c1cn(Cc2ccccc2)c2ccccc12,0.0881
5,CC12CN3CCN(CC(C3)/C1=N/NC(=O)Nc1ccccc1)C2,0.217
6,Cc1nnc(NC(=O)CSc2nc(C(C)C)nc3sc(C)c(C)c23)s1,-0.837
7,CN(C)S(=O)(=O)c1ccc(Cl)c(NC(=O)COC(=O)CN2C(=O)NC(C)(C)C2=O)c1,-0.162
8,O=C1c2ccccc2C(=O)N1CCN1CCCCC1,0.0627
9,N#Cc1c(NC(=O)c2ccc(Cn3cc(Br)cn3)o2)sc2c1CCCCCC2,-0.375
10,CC1(C)Cc2nc3nc(SCC(=O)NCc4ccccc4)n(-c4ccccc4)c(=O)c3cc2CO1,0.0372
11,CCc1ccc(NC(=O)COC(=O)CCc2nc3cc(S(=O)(=O)N(CC)CC)ccc3n2C)cc1,-0.4
12,O=C(NCCC1=CCCCC1)c1ccc(F)c(S(=O)(=O)N2CCOCC2)c1,0.103
13,N/C(Cc1ccc([N+](=O)[O-])cc1)=N\OC(=O)COc1ccc2ccccc2c1,-0.133
14,COCCNC(=O)C1CCCN(c2ncccn2)C1 (stereo not drawn),-0.235
15,CCOC(=O)CN(C(=O)CSc1nnc2c(n1)[nH]c1ccccc12)c1ccccc1,-0.691
16,COC(=O)c1ccccc1NC(=O)C1CCCN(S(=O)(=O)c2ccccc2)C1 (stereo not drawn),-1.97
17,O=C(CCC(=O)c1ccc(Br)cc1)Nc1cccc(C(F)(F)F)c1,0.0995
18,CCOC(=O)CC(NC(=O)c1ccco1)c1ccccc1Cl (stereo not drawn),-0.462
19,CC(C)NC(=O)c1ccccc1NC(=O)CS(=O)(=O)Cc1ccccc1,-0.28
20,O=c1c2ccccc2nc(SCc2cn3ccsc3n2)n1-c1ccccc1F,-2.63
